Reference: article PMC12040169 (PLOS Biology, 2025)
The other results are listed elsewhere or left out.

Test system: T1, C. trachomatis L2/434/Bu expressing GFP (CTL2-GFP)
T1 construct: L2/434/Bu GFP intracellular growth in HeLa cells
Set-up: species or system HeLa; C. trachomatis total inclusion area by high-content imaging, normalised to DMSO
Conditions: total inclusion area; 28.5 h, 10 µM; inhibitor
Outline: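 High-content images of fixed, Hoechst-stained infected cultures supply inclusion area and count (growth) plus nuclei number (viability), complementing bulk GFP/resorufin fluorescence. MIC determination is unchanged from the primary assay.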

First: Cc1nc2ccccc2n1CC(=O)N(Cc1cccnc1)C1CC1 [CBK305248]
Second: Cc1ccc(CCC(=O)N2CCCC2c2nc3ccccc3[nH]2)o1 (stereo not shown) [CBK284012]
The “% of control remaining” value of the first is lower: 51.8493 for the first, 87.8205 for the second.

Compared with `CC(=O)N1CCN([C@H]2[C@@H]3OC[C@@H](O3)[C@@H](NCC3CCCCC3)[C@@H]2O)CC1` [CBK288809], `CCCC(=O)N1CCCCC1c1nn(C)cc1-c1onc(C)c1C` (stereo not shown) [CBK283409] is higher in “% of control remaining” value: 99.9035 for the first, 106.664 for the second.

Going from `CCn1ncc(S(=O)(=O)N2CCCC(c3ccccc3)C2)c1C` (stereo not shown) [CBK282760] to `COc1ccc(N(CC(O)CN2CCOCC2)S(=O)(=O)c2ccccc2)cc1` (stereo not shown) [CBK263589], the “% of control remaining” value falls from 112.937 to 89.5383.

First: Cc1nc2c(C(=O)NCC(F)(F)F)cnn2c(C)c1Cc1ccccc1 [CBK162208]
Second: CC(O)c1cc2n(n1)CCN(C(=O)c1csc(Cc3ccccc3)n1)C2 (stereo not shown) [CBK307437]
The “% of control remaining” value of the first is lower: 82.1997 for the first, 104.618 for the second.

Going from `O=S(=O)(CC(F)(F)F)Nc1cccc2cc[nH]c12` [CBK153585] to `Cn1nc(-c2ccc(S(=O)(=O)Nc3nc(-c4cccnc4)cs3)s2)cc1C(F)(F)F` [CBK067270], the “% of control remaining” value falls from 108.039 to 101.923.

Going from `CCOC(=O)C(NC(=O)c1cn(C)cn1)c1cccc(C)c1C` (stereo not shown) [CBK304098] to `CCOC(=O)c1[nH]c2ccccc2c1NC(=O)c1c(F)ccc(Cl)c1F` [CBK160141], the “% of control remaining” value rises from 61.907 to 97.3651.

Compared with `CC(Oc1ccccc1)C(=O)N1CCN(C/C=C/c2ccccc2)CC1` (stereo not shown) [CBK269050], `O=C(NCc1nc2ccccc2[nH]1)c1cc(Br)cnc1NCCOc1ccccc1` [CBK076220] is higher in “% of control remaining” value: 96.4852 for the first, 97.7417 for the second.

Compared with `CCc1cc(CNS(=O)(=O)c2ccc(C)s2)on1` [CBK283066], `CCc1nnc2sc(-c3ccccc3Br)nn12` [CBK269533] is lower in “% of control remaining” value: 101.996 for the first, 61.4265 for the second.

First: O=C(c1cc(F)c(F)cc1F)N1CCC2(CCCN(CCCn3c(=O)[nH]c4ccccc43)C2)C1 (stereo not shown) [CBK132004]
Second: Brc1cccc(/C=N/c2ccc3nc(-c4ccccc4)[nH]c3c2)c1 [CBK261143]
The “% of control remaining” value of the first is higher: 91.0251 for the first, 89.7007 for the second.

Going from `COc1ccc(-n2c(SCC(N)=O)nc3sc4c(c3c2=O)CC(C)(C)OC4)cc1` [CBK263232] to `CSc1ccc(/C=C(\C#N)c2nn(-c3ccccc3)c(N)c2C#N)cc1` [CBK262339], the “% of control remaining” value falls from 91.6911 to 78.7745.

Compared with `Cn1cnc2cc(-c3nnn[nH]3)ccc21` [CBK306265], `Nc1ccc(-c2ccccc2)c2ccccc12` [CBK084312] is higher in “% of control remaining” value: 41.7689 for the first, 84.0063 for the second.
